The supplement of paper PMC10126150
Sequences with one replicate were seen in a single cluster, so their values are uncertain.

Test system: ATP
Assay: switch fluorescence ratio, 500 uM ATP over buffer (Cy3 cluster intensity, sum of 5 cycles each) (fold (ratio)); higher = stronger signal-on switching upon ATP binding; sequences stand for … in TCGTCGGCAGCGTCAGATGTGTATAAGAGACAGTTTTTTTTTTTTTTTTTTTTTTTTT…TC
Details: aptamer strand: ATP DNA aptamer (quencher-CACCTGGGGGAGTATTGCGGAGGAAGG + anchor), 100 nM annealed; ATP concentration: 500 uM; one replicate
In short: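 Imaging in selection buffer was followed by imaging after 15 min with 500 uM ATP at 22 °C, for Cy3-labelled switching-strand clusters annealed to 100 nM quencher-labelled ATP aptamer on a modified Illumina MiSeq flow-cell. Five of these buffer/ATP cycles ran, separated by NaOH stripping and re-annealing. The fluorescence ratio per cluster is summed target-cycle over summed buffer-cycle Cy3 intensity, averaged per switch-domain sequence; clusters outside 100-1000 RFU were removed.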
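Also: ATP exposure 15 min at 22 °C before imaging.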

## CCACGACTTG
  switch fluorescence ratio: 0.981

## GTTGAAAGTT
  switch fluorescence ratio: 1.05

## TTTCCGCTTG
  switch fluorescence ratio: 1.25

## CCGCGCGCAG
  switch fluorescence ratio: 5.08

## GGCAACAGGT
  switch fluorescence ratio: 1.03

## AGATGACTCG
  switch fluorescence ratio: 0.967

## GAGCATCGTG
  switch fluorescence ratio: 0.971

## TCGTTCCACA
  switch fluorescence ratio: 1.03

## AGGATACTAG
  switch fluorescence ratio: 0.981

## AACGGTTGGG
  switch fluorescence ratio: 1.02

## CAGGAATAAG
  switch fluorescence ratio: 0.994

## AGTCGGCGTG
  switch fluorescence ratio: 1.02

## ACTAGTGAGT
  switch fluorescence ratio: 1.04

## GCTGGTGCTA
  switch fluorescence ratio: 0.953

## CGCCGTCTT
  switch fluorescence ratio: 0.996

## CCCTCTGTGC
  switch fluorescence ratio: 2.3

## TATATGCGAA
  switch fluorescence ratio: 0.997

## AGGGGCACTA
  switch fluorescence ratio: 1.02

## TTACGTATCG
  switch fluorescence ratio: 1.01

## GGAGGGAACC
  switch fluorescence ratio: 1

## GTGGAGACAT
  switch fluorescence ratio: 1.02

## TCAGTCGGTC
  switch fluorescence ratio: 0.997

## GTGTTAGCGG
  switch fluorescence ratio: 1

## AACCATGAGT
  switch fluorescence ratio: 1.05

## GAAAGATTGA
  switch fluorescence ratio: 1

## GATCTTAAGA
  switch fluorescence ratio: 1.01

## AAAGGACCA
  switch fluorescence ratio: 1.02

## CGGAATTAAT
  switch fluorescence ratio: 1.02

## TAAGGGCGTC
  switch fluorescence ratio: 1.05

## ATGTGAGTA
  switch fluorescence ratio: 1

## CCGGCGAGTT
  switch fluorescence ratio: 1.08

## GATATCTGAA
  switch fluorescence ratio: 0.977

## ACAGCAAGGT
  switch fluorescence ratio: 1.19

## TTTAACGTAG
  switch fluorescence ratio: 1.05

## AGATAAGGG
  switch fluorescence ratio: 1.03

## ATGGATGCCG
  switch fluorescence ratio: 1.14

## GGGCGTTTTA
  switch fluorescence ratio: 1.03

## GTATTACATC
  switch fluorescence ratio: 0.981

## GGCACCGTAT
  switch fluorescence ratio: 1.04

## TTTATGCTGA
  switch fluorescence ratio: 0.966

## TTCCTAGCGC
  switch fluorescence ratio: 0.991

## ATGGGCAAGT
  switch fluorescence ratio: 1

## ATCGGCGACG
  switch fluorescence ratio: 1.06

## ACGAAATACC
  switch fluorescence ratio: 2.53

## TTACAACTTG
  switch fluorescence ratio: 1

## ATCGAGACGC
  switch fluorescence ratio: 1.04

## CAATGTGACT
  switch fluorescence ratio: 1.02

## AGGAGAATTT
  switch fluorescence ratio: 1.02

## GGTCGATATA
  switch fluorescence ratio: 1

## TTCAGGTCCG
  switch fluorescence ratio: 1

## TTAATCGTA
  switch fluorescence ratio: 0.998

## TGGCCGTACC
  switch fluorescence ratio: 1.21

## AAGAGCAACG
  switch fluorescence ratio: 0.946

## CTATATATTG
  switch fluorescence ratio: 0.975

## GGTCCCTTTG
  switch fluorescence ratio: 0.996

## TCTAATCAGG
  switch fluorescence ratio: 0.952

## TTGAACCTGT
  switch fluorescence ratio: 1.02

## AGACAAGATA
  switch fluorescence ratio: 1

## TATTTTGAC
  switch fluorescence ratio: 1

## TATGGATGTT
  switch fluorescence ratio: 0.993

## AACAGTAGGC
  switch fluorescence ratio: 1.04

## GGCTTCTGTT
  switch fluorescence ratio: 1.07

## CCGTGTGGCA
  switch fluorescence ratio: 1.02

## GCGGGTCGCG
  switch fluorescence ratio: 1.01

## GCGGACGACC
  switch fluorescence ratio: 1.75

## TGTGTATATA
  switch fluorescence ratio: 1

## TTGGTATGCC
  switch fluorescence ratio: 0.976

## GGTAGCTTTT
  switch fluorescence ratio: 1.02

## GGACACGTTC
  switch fluorescence ratio: 1.06

## CGACGTCGCG
  switch fluorescence ratio: 0.961

## GCTCAACTTT
  switch fluorescence ratio: 1.04

## TTGACCATCC
  switch fluorescence ratio: 1.83

## AGCTACTTTC
  switch fluorescence ratio: 1.07

## CCCTGGGTAG
  switch fluorescence ratio: 1.22

## GATTATGGG
  switch fluorescence ratio: 0.997

## AGCGAGGAGT
  switch fluorescence ratio: 0.997

## ATTTAATAGT
  switch fluorescence ratio: 0.995

## TATGCCCGAT
  switch fluorescence ratio: 0.969

## CACCGTCGCT
  switch fluorescence ratio: 1.09

## CAGCCCATGC
  switch fluorescence ratio: 0.997

## TATAGTAGCG
  switch fluorescence ratio: 0.997

## GTGGACAGAT
  switch fluorescence ratio: 0.966

## CAACGCCGCA
  switch fluorescence ratio: 1.17

## TATTTATAAT
  switch fluorescence ratio: 0.985

## ACGAGAGACA
  switch fluorescence ratio: 1.08

## AGATTCGGTT
  switch fluorescence ratio: 1.01

## GGATATGAAG
  switch fluorescence ratio: 1.02

## CCTAAAGACA
  switch fluorescence ratio: 1.03

## AGGGGGCCAT
  switch fluorescence ratio: 0.987

## CCAAGTTGAT
  switch fluorescence ratio: 1.03

## CGTGACTCTG
  switch fluorescence ratio: 0.983

## CGGGGATCCA
  switch fluorescence ratio: 0.988

## CTTAAGGGGG
  switch fluorescence ratio: 0.989

## GTGGGCTATT
  switch fluorescence ratio: 1.01

## GGCGCGAATA
  switch fluorescence ratio: 1.11

## TTAGCACGT
  switch fluorescence ratio: 1.04

## TAACCGGGTA
  switch fluorescence ratio: 0.989

## CGCTCCTCAA
  switch fluorescence ratio: 6.34

## CACCATAGCT
  switch fluorescence ratio: 1.01

## TGCCTAAGTC
  switch fluorescence ratio: 1.03

## TTCGATGGGC
  switch fluorescence ratio: 0.995

## CTAGATGAGA
  switch fluorescence ratio: 1.04

## GTTGCAGGCG
  switch fluorescence ratio: 0.991

## TAACTTGACT
  switch fluorescence ratio: 1.04
